Test results published in publication PMC4336329 (PLoS ONE, 2015).
In all, about 310,000 compounds went through this assay and about 2,200 (0.71%) showed an effect of 50% or more. Effects have a minus sign here. This is one part of the list.

Target: human ether-à-go-go-related gene (hERG) potassium channel (human, UniProt Q12809)
Test: primary screen, population patch clamp on CHO cells stably expressing hERG

Sequence of human ether-à-go-go-related gene (hERG) potassium channel (Q12809 whole entry, looked up): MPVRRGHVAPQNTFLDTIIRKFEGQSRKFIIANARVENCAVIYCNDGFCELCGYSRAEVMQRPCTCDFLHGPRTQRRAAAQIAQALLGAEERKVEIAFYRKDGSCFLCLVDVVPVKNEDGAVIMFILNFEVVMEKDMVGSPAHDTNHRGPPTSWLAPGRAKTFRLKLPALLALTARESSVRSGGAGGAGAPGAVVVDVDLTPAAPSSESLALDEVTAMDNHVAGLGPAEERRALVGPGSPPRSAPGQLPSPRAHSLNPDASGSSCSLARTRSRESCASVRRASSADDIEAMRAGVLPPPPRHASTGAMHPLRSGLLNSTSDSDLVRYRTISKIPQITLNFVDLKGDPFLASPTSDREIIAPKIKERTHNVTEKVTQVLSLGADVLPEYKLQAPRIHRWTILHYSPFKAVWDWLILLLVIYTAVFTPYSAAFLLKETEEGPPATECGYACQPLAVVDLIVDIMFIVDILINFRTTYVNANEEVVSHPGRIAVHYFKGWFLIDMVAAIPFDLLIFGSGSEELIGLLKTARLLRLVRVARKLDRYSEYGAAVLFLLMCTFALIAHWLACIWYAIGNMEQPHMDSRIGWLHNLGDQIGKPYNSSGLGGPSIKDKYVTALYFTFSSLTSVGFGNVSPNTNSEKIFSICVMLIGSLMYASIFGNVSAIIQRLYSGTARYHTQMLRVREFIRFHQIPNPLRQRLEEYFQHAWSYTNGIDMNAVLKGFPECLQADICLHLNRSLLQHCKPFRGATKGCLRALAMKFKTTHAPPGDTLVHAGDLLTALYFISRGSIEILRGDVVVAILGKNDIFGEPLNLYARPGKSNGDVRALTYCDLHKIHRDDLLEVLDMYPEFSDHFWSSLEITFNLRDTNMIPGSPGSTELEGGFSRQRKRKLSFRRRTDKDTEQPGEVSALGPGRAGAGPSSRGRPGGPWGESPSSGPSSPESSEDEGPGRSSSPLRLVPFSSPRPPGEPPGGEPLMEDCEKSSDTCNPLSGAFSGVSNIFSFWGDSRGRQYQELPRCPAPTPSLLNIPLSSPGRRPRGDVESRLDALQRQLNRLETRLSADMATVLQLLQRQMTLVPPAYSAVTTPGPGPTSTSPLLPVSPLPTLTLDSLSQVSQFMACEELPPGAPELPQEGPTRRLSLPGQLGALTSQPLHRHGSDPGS

| Compound | hERG current change (%, negative = inhibition) at 1uM [%] |
| --- | --- |
| COCCCN(C(=O)c1cc(C)oc1C)c1c(N)n(CC(C)C)c(=O)[nH]c1=O | 13.3 |
| Cc1ccccc1-c1nnc(SCC(=O)Nc2c(C)n(C)n(-c3ccccc3)c2=O)o1 | 4.01 |
| CCOC(=O)N/N=C\c1ccccc1OC/C=C/c1ccccc1 | 5.31 |
| CCCn1c(=O)c2c(C(F)(F)F)cc(-c3ccco3)nc2n(CCC)c1=O | 7.96 |
| CC(CN1CCOCC1)OC(=O)c1cccc(Cl)c1.Cl (centres unmarked) | 11.6 |
| Cn1c(=O)[nH]c(=O)c2c1nc(NCCN)n2CCOc1ccccc1 | 18.6 |
| COc1c(O)ccc(/C=N\NC(=O)c2ccc3c(c2)OCO3)c1[N+](=O)[O-] | 8.5 |
| CCN1CCN(C(=O)CCc2nnc(CCc3ccc(OC)cc3)o2)[C@@H](C)C1=O | 10.5 |
| O=C(NC1CCN(Cc2ccccc2Cl)CC1)c1ccccc1 | 10 |
| CN(C)c1ccccc1C(=O)c1ccccc1N(C)C | 4.96 |
| O=C(C[n+]1cc[nH]c1)c1ccc(Cl)cc1.[Cl-] | 9.68 |
| CSCc1ccc(C(=O)N2CCCC(Nc3ccc4c(c3)OCCO4)C2)o1 (centres unmarked) | 3.83 |
| O=C(Cn1cncn1)N/N=C/c1cccc(Cl)c1 | 14.8 |
| CCOc1ccc(NC(=O)CCCn2c(=S)[nH]c3ccsc3c2=O)cc1 | 10.1 |
| O=C(N1CCCC1)C12CC3CCC(CC(C3)C1)C2 | 11.4 |
| CN(C)c1nc(OCCNC(=O)COc2ccc(Cl)cc2Cl)nc(N2CCOCC2)n1 | 2 |
| COC(=O)C(NC=O)C(O)(Cc1ccccc1)C(F)(F)F (centres unmarked) | 6.35 |
| CSc1ncccc1C(=O)OCc1c(F)cccc1Cl | 14.2 |
| CN(C)S(=O)(=O)Oc1cccc(C(=O)Nc2cccc(Cl)c2)c1 | 6.68 |
| COC(=O)C1=C(c2ccc(F)cc2OCc2ccccc2)C[C@@H]2CC[C@H]1N2C(=O)NCCNC(C)=O | 16.4 |
| Cc1cc(C)n(/N=C/c2ccc(C(C)C)cc2)c(=O)c1C#N | 13.2 |
| C/C(=N\NC(N)=O)c1ccccc1Cl | 2.37 |
| CCCC(=O)Nc1cccc(NC(=S)NC(=O)C(C)Oc2ccc(Cl)cc2Cl)c1 (centres unmarked) | -1.84 |

| Compound | hERG current change (%, negative = inhibition) at 1uM [%] |
| --- | --- |
| CCC(=O)NC(=S)Nc1ccc(NC(=O)c2ccc(C)c([N+](=O)[O-])c2)cc1 | 11.2 |
| Cc1ccc(-c2cc(C(=O)N3CCN(C(=O)c4ccco4)CC3)[nH]n2)cc1C | 14.4 |
| CN(Cc1ccccc1)C(=O)COc1ccccc1Cl | 11 |
| O=C(Nc1ccc(S(=O)(=O)Nc2ncccn2)cc1)C1=COCCO1 | 4.77 |
| O=C(NCc1ccc2c(c1)OCO2)c1nn(-c2ccccc2)c(=O)c2ccccc12 | -10.7 |
| C1COCCNCCOCCOCCN1 | 7.88 |
| CCOC(=O)c1nnn(-c2nonc2N)c1CNc1ccccc1 | -3.77 |
| O=C(CN(C(=O)Cn1nnc(-c2cccs2)n1)c1ccc2c(c1)OCCO2)NCc1ccccc1 | 8.53 |
| Cc1nnc(SCc2ccccn2)n(N)c1=O | 8.41 |
| CCOC(=O)N1CCC(c2[nH][nH]c(=O)c2C)CC1 | 14.9 |
| CCC(C)(C)NC(=O)c1cc([N+](=O)[O-])ccc1N1CCCCC1 | 6.73 |
| COc1ccc(C2=NN(C(=O)COC(=O)c3ccc(NC(=O)CC#N)cc3)C(c3ccco3)C2)cc1 (centres unmarked) | 8.45 |
| CC(=O)Nc1ccc(C(=O)N2CCN(S(=O)(=O)c3ccc4c(c3)OCCCO4)CC2)cc1 | 13.9 |
| Cn1cc(C2CC(c3ccccc3)=NN2C(=O)c2ccccc2)c2ccccc21 (centres unmarked) | -9.01 |
| CCOc1ccccc1NC(=O)c1cc(S(=O)(=O)NCc2ccco2)ccc1F | 2.3 |
| Cn1c(COc2ccc(Cl)cc2)nnc1SCc1ncc(-c2ccccc2)o1 | -31.2 |
| CN(C)C(=O)CCc1nc2sc3c(c2c(=O)[nH]1)CCCC3 | 10.3 |
| CCC(=O)Nc1cccc(C2=NOC3(C2)C[C@@H](C(N)=O)N(C(=O)C2(C)CC2)C3)c1 (some centres unmarked) | 12.8 |
| Cc1cc(SCC(=O)N(C)C2CCS(=O)(=O)C2)nc2c(C)cccc12 (centres unmarked) | 15 |
| COc1ccc(CC(=O)NCC(C)(C)N2CCOCC2)cc1 | 17.2 |
| COc1ccc(C2c3ccc(O)cc3Oc3ncn(CC(C)C)c(=N)c32)cc1 (centres unmarked) | -22.2 |
| Cc1ccc(C(=O)c2coc3ccc(O)c(CN(C)C)c23)cc1.Cl | -16.2 |
| Cc1cc(C)n(CC(C)Nc2nc3nonc3nc2N2CCCCC2)n1 (centres unmarked) | 15.4 |

| Compound | hERG current change (%, negative = inhibition) at 1uM [%] |
| --- | --- |
| COc1cc(C(C)=O)ccc1OCCCOc1cccc2cccnc12 | 8.17 |
| CN(/N=C/c1ccc(O)cc1O)c1nc(-c2ccccc2)cc(-c2ccccc2)n1 | 9.81 |
| Cc1cc(C)nc(N(C#N)S(=O)(=O)c2ccccc2)n1 | 13 |
| Cc1cc(C(=O)Nc2ccc(F)cc2C)cs1 | -0.428 |
| COc1cc(-c2nc(C)c(C(C)=O)n2O)ccc1OCC(=O)Nc1ccc(Cl)cc1 | 11.2 |
| CCOc1ccc(NC(=O)C2CCN(S(=O)(=O)c3c(C)noc3C)CC2)cc1 | 1.82 |
| COc1cc(C(C(=O)NC(C)(C)C)N(C(=O)CNC(=O)c2cccs2)c2cccnc2)cc(OC)c1OC (centres unmarked) | 21.9 |
| CCCc1nnc(SCC(=O)N2CCCC2)n1Cc1ccco1 | 6.76 |
| O=C(Nc1c(-c2ccccc2)nc2ncccn12)c1cc2ccccc2oc1=O | 2.02 |
| O=C(C1Cc2ccccc2CN1C(=O)c1ccco1)N1CCN(c2ccccc2)CC1 (centres unmarked) | -3.04 |
| CCSc1nnc(NC(=O)c2cccs2)s1 | -19.4 |
| O=C(NCCN1CCOCC1)NC1(C(F)(F)F)Oc2ccc(Cl)cc2O1 (centres unmarked) | -2.19 |
| CC1CCCC(C)N1C(=O)C1CC(c2ccc(F)cc2)=NO1 (centres unmarked) | -3.84 |
| O=C(Nc1ccc(CN2CCOCC2)cc1)c1cccs1 | -1.43 |
| COc1cccc(-n2ccn(CC(=O)NCCc3ccccc3)c(=O)c2=O)c1 | 12.4 |
| Cc1ccc(C(=O)C(OC(=O)CCC(=O)Nc2cccc(C)c2)c2ccccc2)cc1 (centres unmarked) | 5.88 |
| Cc1cc2ncn(CCCCOc3ccccc3)c2cc1C | 10.6 |
| CC(C)COC(=O)c1cc(-c2ccc(/C=N/n3cnnc3)o2)ccc1Cl | 7.71 |
| Cc1cc(C)c(NC(=O)c2cc(=O)c3ccccc3o2)c(C)c1 | -12.8 |
| COc1cccc(NC(=O)CN(c2ccc(C)cc2)S(=O)(=O)c2c(C)nn(C)c2C)c1 | -1.17 |
| Cc1sc(NC(=O)CSc2nnc(C)c(=O)[nH]2)c(C#N)c1C | 17 |
| Cc1ccc(CC(=O)Nc2nccs2)cc1C | 9.56 |
| COc1cccc(/C=C2\SC(=O)N(CC(=O)NCCCn3ccnc3)C2=O)c1 | 9.38 |

| Compound | hERG current change (%, negative = inhibition) at 1uM [%] |
| --- | --- |
| Cc1ccc(C)c(SCC(=O)NCC(c2ccco2)N2CCCCC2)c1 (centres unmarked) | 14.3 |
| Cc1ccnc(NC(=O)CNC(=O)c2ccc3c(c2)OCO3)c1 | 6.89 |
| Cc1ccc(NC(=O)c2cc(N3C(=O)C=CC3=O)ccc2N2CCOCC2)cc1Cl | 14.4 |
| O=C1CCC(=O)N1c1ccc(-c2nc3sc4c(c3c(=O)o2)CCC4)cc1 | -4.84 |
| CCOc1nc2ccccc2cc1C=O | 4.75 |
| Nc1ccccc1SCC(=O)Nc1ccc2c(c1)OCO2 | 9.58 |
| Cc1ccc(N(C(=O)Cn2nnc3ccccc32)C(C(=O)NCc2ccco2)c2cccnc2)cc1 (centres unmarked) | 3.55 |
| COC(=O)CCCCCC(CCC(=O)OC)NC(C)=O (centres unmarked) | 9.7 |
| COc1ccc(Br)cc1/C=C1\Oc2ccccc2NC1=O | 11.3 |
| O=C(NCC(c1ccco1)N1CCCCC1)c1ccc(NS(=O)(=O)c2ccc(F)cc2)cc1 (centres unmarked) | 2.07 |
| COc1cccc(CC(NC(C)=O)C(=O)NC2CCN(c3nnnn3-c3ccccc3)CC2)c1OC (centres unmarked) | 18.4 |
| Cc1ccccc1C(O)c1cccnc1 (centres unmarked) | 20.8 |
| CC1(C)O[C@@H]2[C@H](O1)[C@@H](CO)O[C@H]2n1ccc(=O)[nH]c1=O | 12.2 |
| NC(=O)C1CCN(C(=O)/C=C/c2ccco2)CC1 | 18.9 |
| COC(=O)c1ccc(-c2nc(O)c(C)s2)cc1 | 9.1 |
| COc1ccc(CNC(=O)c2ccc(N(C)S(=O)(=O)c3ccc(C)cc3)cc2)cc1 | 10.1 |
| Cc1ccc(N(C(=O)CS(=O)CC(=O)Nc2ccc(F)cc2)C(C(=O)NC2CCCCC2)c2ccco2)cc1 (centres unmarked) | 13.2 |
| CN(CCO)c1cc(NCCCN2CCC(Cc3ccccc3)CC2)c2nonc2c1[N+](=O)[O-] | -4.81 |
| Cl.O=C(CNCC1CCCO1)Nc1ccccc1-n1cccc1 (centres unmarked) | -3.21 |
| COc1cc(C(=O)NCCCn2ccnc2)cc(OC)c1OC.Cl | 10.3 |
